Reference: ChEMBL document CHEMBL4888484, “Replenishing the malaria drug discovery pipeline: Screening and hit evaluation of the MMV Hit Generation Library 1 (HGL1) against asexual blood stage Plasmodium falciparum ,using a nano luciferase reporter read-out” (2022)
Hit rate of the full screen: of about 150,000 compounds, about 540 (0.36%) showed an effect of 50% or more. Some of the results follow.

Test system: Plasmodium falciparum
Test: Primary screen in NF54 nanoGlo assay, in single point, at 2uM, 72h; a lower Z score goes with more inhibition
Type: functional, Erythrocyte
Details: timepoint 72 hour

Structure (SMILES) | % Inhibition | Z score
COCCN(CC(C)C)C(=O)c1ccncc1 | -8% | 1.15
O=C(NCc1cccnc1-c1ccsc1)c1ccc(Oc2nccs2)cc1 | -5% | 0.84
c1ccc2c3c(ccc2c1)[C@@H](NCc1ccncc1)CCCO3 | 0% | 0.04
Cc1ccc(-c2nnc(NC(=O)c3c[nH]nc3-c3ccccc3)[nH]2)o1 | -5% | 0.48
Cc1noc(C)c1CNC(=O)N1CC[C@@](O)(c2ccccc2)[C@H]2CCCC[C@H]21 | -2% | 0.3
CCCCNCCOc1ccc(C)cc1Br | 9% | -1.2
Cc1cc(-c2ccc3c(=O)n(-c4ccccc4)[nH]c3n2)c(C)o1 | -11% | 1.14
CN(c1ccccc1)S(=O)(=O)c1ccsc1-c1nc(-c2ccncc2)no1 | -7% | 0.97
CC(=O)Nc1ccc(C(=O)Cn2c(=O)n(S(=O)(=O)c3ccccc3)c3ccccc32)cc1 | -34% | 3.94
Cc1nnc(CNC2CC(NC(=O)OC(C)(C)C)C2(C)C)s1 (centres undefined) | -2% | 0.25
O=C(NCC1(c2ccccc2)CCCCCC1)N1CCO[C@@H](CO)C1 | -5% | 0.59
C[C@@H](Cc1cccs1)N(C)S(=O)(=O)Cc1ccon1 | -5% | 0.52
Cc1cc(F)ccc1CS(N)(=O)=O | -5% | 0.92
CCn1ncc(-c2cc(C3CC3)nc(N)c2C#N)c1C | -17% | 2.14
CCCn1nccc1S(=O)(=O)N[C@H]1CCOC[C@@H]1Oc1ccccn1 | 7% | -1.11
CC(C)C[C@@H]1CN(C(=O)c2ccc3[nH]ccc3c2)CC[C@]1(C)O | -6% | 1.18
c1ccc(N2CC[C@H](N3CCN(Cc4cccs4)CC3)C2)cc1 | -2% | 0.4
CCc1nc2c(c(OC3CCN(S(=O)(=O)Cc4ccccc4)CC3)n1)CCOCC2 | -8% | 0.97
COc1cccc(CNC(=O)c2c(C)noc2-c2cccs2)c1 | 11% | -1.79
Cc1cc2c(c(N)c1C)[C@@H](C)CC21CCCCC1 | -2% | 0.18
Cc1noc2nc(-c3cnn(C)c3)cc(C(=O)Nc3ccn(C(C)C)n3)c12 | 25% | -2.8

Structure (SMILES) | % Inhibition | Z score
Cc1nnsc1C(=O)NCC1CCN(c2cnccn2)CC1 | -4% | 0.59
c1cc2nnnn2nc1NC(C1CCCC1)C1CCCC1 | 3% | -0.33
CCn1c([C@H]2CCCN(Cc3ccccc3Cn3cccn3)C2)n[nH]c1=O | -8% | 1.07
Cc1csc(NC(=O)c2c(-c3ccccc3)c(-c3ccccc3)n[nH]c2=O)n1 | 5% | -0.94
COCC(=O)N1C[C@H](Nc2ccc(C(F)(F)F)cn2)[C@@H](C2CC2)C1 | -6% | 1.2
COCCN(C(=O)c1cc(C)oc1C)c1ccncc1 | 4% | -0.65
Cc1ccc(S(=O)(=O)NCc2nnc(C(=O)Nc3ccccc3F)s2)c(C)c1 | 9% | -1.08
CN(Cc1cn(CC(N)=O)nn1)C[C@]1(O)CCc2ccccc21 | -4% | 0.35
O=S(=O)(c1ccc2oc(Nc3ccc(F)c(Cl)c3)nc2c1)N1CCOCC1 | -6% | 1.03
FC(F)(F)c1nc2nccc(-c3cccc4ccccc34)n2n1 | -8% | 1.06
Cc1nonc1CC(=O)N[C@H]1CC(=O)N(CCCc2ccccc2)C1 | -10% | 1.21
COc1ccccc1Cc1n[nH]c(CNC2CC2)n1 | 13% | -1.67
O=C(O)[C@]12CN(Cc3ccncc3)C[C@H]1CN(Cc1ccccc1Cl)C2 | -9% | 1.71
CNC(=O)C1(NC(=O)CCCc2ccccn2)CCCC1 | -7% | 0.76
Cc1c[nH]c(C(C)(C)NC(=O)c2ccc3[nH]c(=O)[nH]c3c2)n1 | -13% | 1.78
CN(CCC[C@H]1CCCO1)CC(=O)N(C)c1ccccc1 | -16% | 1.86
CNC(=O)CN1CC2OCCN(Cc3ccccc3)C2C1 (centres undefined) | -8% | 1.12
CCS(=O)(=O)N(CCN1CCCCC1)C1CN(C(=O)CC2CCCCC2)C1 | -4% | 0.51
O=C1[C@@H]2CC[C@@H](C2)N1Cc1cccc(C(F)(F)F)c1 | 4% | -0.52
O=C(NCc1ccccc1Cl)[C@H]1CCCN(c2nc3ccccc3o2)C1 | -18% | 2.68
Cc1ccnc(-n2cccc2CN2CCOC[C@@H](CN(C)C)C2)c1 | -13% | 1.4
